Measurements published in patent US20260166082A1, “METHODS OF TREATMENT WITH T CELL THERAPY AND IMMUNOMODULATORY AGENT MAINTENANCE THERAPY” (Celgene Corporation, priority 2022, published 2026).

Columns and labels:
[1] = test system: human subjects with multiple myeloma (MM) who had an inadequate response after frontline therapy with autologous stem cell transplant (ASCT); format: in vivo; details: n = 8; after lenalidomide maintenance, following anti-BCMA CAR-T cell infusion
Excerpt: Additionally, subjects have measurable disease.
Eight subjects received lenalidomide maintenance.
Cytokine release syndrome (graded by Lee Criteria 2014) was low grade. Grade 1 CRS occurred in 14 subjects (45.2%), Grade 2 in 4 subjects (12.9%), and ≥Grade 3 in 0 subject. Median duration of cytokine release syndrome was 3 (range 1-7) days. Moreover, investigator identified neurotoxicity (iiNT) occurred in 2 subjects (6.5%). […] Grade 3 iiNT signs and symptoms were aphasia, bradykinesia, abnormal reflexes, and tremor. Median duration of neurotoxicity was 3.5 (range 2-5) days.
Grade 1 AEs are mild; Grade 2 AEs are moderate; Grade 3 AEs are severe; Grade 4 AEs are life-threatening; and Grade 5 AEs result in death. […] 94% of patients experienced a Grade 3 or 4 adverse event. Grade 3/4 infections included pneumonia (n=1, 3.2%) human ehrlichiosis (n=1, 3.2%), viral pneumonia (n=1, 3.2%) and upper respiratory infection (n=1, 3.2%). […] For grade ≥3 neutropenia and thrombocytopenia occurring within 1 month of anti-BCMA CAR T cell infusion and not resolved at month 1, recovery was defined as attaining laboratory results ≤grade 2 (time to recovery was calculated by recovery/censoring date−infusion date+1).

[2] = test system: human subjects with multiple myeloma (MM) who had an inadequate response after frontline therapy with autologous stem cell transplant (ASCT)

In the case of `Nc1cccc2c1CN(C1CCC(=O)NC1=O)C2=O` (stereo not shown) [lenalidomide, 3-(4-amino-1-oxo-1,3-dihydro-2H-isoindol-2-yl) piperidine-2,6-dione], the “Anemia, any grade” value [1] is reported as 0 n, the “Anemia, grade 3/4” value [1] is reported as 0 n and the “CRS, any grade” value [1] is reported as 0 n. For the same molecule, the “CRS, grade 3/4” value [1] was 0 n, the “Leukopenia, any grade” value [1] was 0 n and the “Leukopenia, grade 3/4” value [1] was 0 n. The “Thrombocytopenia, grade 3/4” value [1] was 0 n, the status of responses ([2]; 8 subjects on lenalidomide maintenance after anti-BCMA CAR-T cells, subsequent analysis) was “all responses were ongoing” and the “subjects who achieved a complete response or better” value ([2]; 8 subjects who received lenalidomide maintenance after anti-BCMA CAR-T cell infusion (6 out of 8)) was 75%. For the same molecule, the progressive disease events ([2]; subjects who received lenalidomide maintenance after anti-BCMA CAR-T cells, earlier analysis) was “no progressive disease events occurred”.
